The values below come from the supplement of paper PMC3334620.

Whole data set: some 33,000 sequences, median “E-score (-0.5 to 0.5)” near -0.036, cut for the highest 2% near 0.37. The list shows a part of the results.

This experiment has as its target T1, Yer064c (UniProt P40041).
T1 sequence: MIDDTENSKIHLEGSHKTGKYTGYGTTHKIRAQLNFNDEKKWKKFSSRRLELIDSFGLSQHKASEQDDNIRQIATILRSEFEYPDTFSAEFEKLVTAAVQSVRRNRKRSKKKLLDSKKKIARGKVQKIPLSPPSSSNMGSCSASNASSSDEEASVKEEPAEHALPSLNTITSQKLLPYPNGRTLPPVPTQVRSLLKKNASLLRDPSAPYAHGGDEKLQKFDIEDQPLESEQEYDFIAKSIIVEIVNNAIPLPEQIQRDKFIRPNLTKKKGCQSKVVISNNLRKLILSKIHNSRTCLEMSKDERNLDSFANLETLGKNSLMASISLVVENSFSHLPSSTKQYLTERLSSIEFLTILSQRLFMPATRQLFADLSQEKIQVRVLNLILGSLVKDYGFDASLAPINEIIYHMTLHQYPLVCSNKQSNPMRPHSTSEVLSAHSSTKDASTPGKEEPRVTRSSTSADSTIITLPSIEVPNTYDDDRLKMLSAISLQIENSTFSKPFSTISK
Kind of experiment: PBM E-score (8-mer binding enrichment) (E-score (-0.5 to 0.5)); higher = stronger / more preferred TF binding; most listed sequences are background and not binding sites. As to conditions: protein concentration: 200 nM; construct: GST-full length. The procedure, abridged: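 The E-score, a modified Wilcoxon-Mann-Whitney statistic, was computed by the Universal PBM Analysis Suite for every ungapped eight-base word pooled with its reverse complement. Scans behind it were normalised with masliner after bound GST-tagged yeast transcription factors were detected with fluorescent anti-GST. The proteins, at about 100-200 nM, had been applied to universal all-10-mer Agilent arrays made double-stranded by primer extension.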
In the case of CTAGCACC, the “PBM E-score” value was -0.122.

With AAGTTCAG, the “PBM E-score” value was -0.0424.

With GACTGGTA, the “PBM E-score” value stood at 0.225.

Take AGCACTTG: the “PBM E-score” value is -0.248.

As to AAACGCAG, the “PBM E-score” value is -0.00808.

As to AGTTAAGA, the “PBM E-score” value amounted to 0.129.

CGCTGACC: the “PBM E-score” value is -0.0261.

Take GACCATAC: the “PBM E-score” value is -0.0558.

In the case of GGCGACCC, the “PBM E-score” value was -0.364.

Consider ACGTTGGC, for which the “PBM E-score” value was -0.144.

CGTATTGC: the “PBM E-score” value is -0.194.

In the case of CGGGAATA, the “PBM E-score” value was -0.0781.

Turning to AGCAGAAC, the “PBM E-score” value was -0.095.

Consider GGGGTTAC, for which the “PBM E-score” value is -0.203.

As for CTTGGACC, the “PBM E-score” value was -0.357.

As to AGTCGTGA, the “PBM E-score” value came to 0.375.

Regarding CGGGCGAC, the “PBM E-score” value was -0.0222.

Take CTATGTGC: the “PBM E-score” value worked out at 0.00946.

Consider ACTAGAGA, for which the “PBM E-score” value came out at 0.127.

As for AGCATGCG, the “PBM E-score” value is -0.0603.

For CCGGTCTC, the “PBM E-score” value is -0.253.

As for AGTACTCA, the “PBM E-score” value worked out at 0.393.

CCGGGATA: the “PBM E-score” value is -0.158.

For CGCCGTCC, the “PBM E-score” value was -0.0611.

Regarding GGGGGTTA, the “PBM E-score” value was -0.187.

For the sequence GTACCGGA, the “PBM E-score” value was -0.263.

In the case of CTACTATA, the “PBM E-score” value is 0.0822.

In the case of ACAAGGAA, the “PBM E-score” value was -0.0172.

Take GCGCGCAA: the “PBM E-score” value was -0.0743.

On to AAGTTGGT, for which the “PBM E-score” value came out at 0.091.

Consider ACAATCCC, for which the “PBM E-score” value was found to be 0.0868.

Take CAAGTGTA: the “PBM E-score” value worked out at 0.0392.

For the sequence AAGATGGG, the “PBM E-score” value was -0.0112.

Consider CGTTCTAA, for which the “PBM E-score” value is 0.0916.

For TCACCCAA, the “PBM E-score” value is 0.103.

Turning to GCCGTCGA, the “PBM E-score” value is -0.0942.

As to GGCTCCCA, the “PBM E-score” value is -0.115.

With ATTGCCGC, the “PBM E-score” value amounted to 0.0328.

Regarding ATGGAGGG, the “PBM E-score” value was -0.0793.

CAACCACC: the “PBM E-score” value came to 0.0883.

For AGTCCATG, the “PBM E-score” value amounted to 0.276.

Regarding GCTGATCC, the “PBM E-score” value is -0.0285.

For ACCTGAAC, the “PBM E-score” value is -0.0686.

Turning to AGAATAAC, the “PBM E-score” value was -0.016.

On to AAAATATC, for which the “PBM E-score” value worked out at 0.105.

With CGGTACAA, the “PBM E-score” value is -0.19.

For AGAAGCCT, the “PBM E-score” value is -0.201.

For the sequence CGGCCCGC, the “PBM E-score” value is -0.138.

In the case of CGGTAGAG, the “PBM E-score” value is -0.118.

Regarding AGGCTGGC, the “PBM E-score” value is -0.145.

AGGCCTTG: the “PBM E-score” value is -0.117.

Take AAACAACG: the “PBM E-score” value was -0.108.

For the sequence GAGGTCGA, the “PBM E-score” value was -0.0536.

Consider GTGGATAA, for which the “PBM E-score” value was -0.144.

As to AACAACCT, the “PBM E-score” value was -0.071.

For AGGGTATC, the “PBM E-score” value was -0.18.

Turning to AACACGTC, the “PBM E-score” value was -0.178.

As to GGTAGAAA, the “PBM E-score” value is -0.226.

For GCATCTCC, the “PBM E-score” value was -0.281.

For the sequence CGCCAACC, the “PBM E-score” value is -0.206.

Regarding AGCGAAAC, the “PBM E-score” value is 0.0885.

As for ACACTCTC, the “PBM E-score” value was found to be 0.0479.

Take CTTTTTCC: the “PBM E-score” value was -0.00626.

Consider CCGCCACA, for which the “PBM E-score” value was -0.232.

Consider AGATATAT, for which the “PBM E-score” value is -0.0196.

For ATTGATCA, the “PBM E-score” value was determined as 0.203.

Turning to AGTGACCC, the “PBM E-score” value was -0.0592.

CGCGATTA: the “PBM E-score” value came out at 0.23.

In the case of CCCAAACA, the “PBM E-score” value was determined as 0.0193.

Regarding AATATCGC, the “PBM E-score” value was -0.11.

Turning to CCACGCGC, the “PBM E-score” value is -0.161.

For CCGTTGTA, the “PBM E-score” value was -0.0298.

For the sequence GCGTGTAC, the “PBM E-score” value is -0.00824.

With GAGTTTCA, the “PBM E-score” value came out at 0.219.

In the case of GATTTCGC, the “PBM E-score” value is 0.15.

For the sequence AGTACGTC, the “PBM E-score” value was determined as 0.0614.

Regarding CACGCAGC, the “PBM E-score” value is -0.179.

As to ATAGATCG, the “PBM E-score” value was -0.0521.

As to AATACTTG, the “PBM E-score” value was -0.148.

Consider CTCTAAAA, for which the “PBM E-score” value stood at 0.159.

As for CAAGTTAG, the “PBM E-score” value was 0.173.

As to GCAGCTAC, the “PBM E-score” value was -0.0944.

For CGCCTAAA, the “PBM E-score” value is -0.00255.

Regarding AGGTCAGC, the “PBM E-score” value is -0.0836.

On to CCCATGCG, for which the “PBM E-score” value is -0.224.

Take TATATCAA: the “PBM E-score” value came to 0.0841.
